Experimental data published in PubChem BioAssay AID624417 (National Center for Advancing Translational Sciences (NCATS), 2012).
Among all 410,000 compounds or so, about 6,400 (1.6%) were called active. Inconclusive means that the source gave no clear call. Such entries were picked first, then a sample of the others. Calls follow the shape of the dose curve; as a rule, active = well fitted inhibition curve with a large enough effect; inconclusive = small, poorly fitted or top-dose-only effect; inactive = no such curve, though single readings can be large or run the other way. Potencies of inconclusive entries are left out as doubtful fits.

These compounds were tested against Glucagon-like peptide 1 receptor (Homo sapiens) (UniProt P43220) (assay: qHTS of GLP-1 Receptor Inverse Agonists (Inhibition Mode)). Conditions: HEK293 GLP-1R CRE-luciferase, luminescence, 24 h, GLP-1R form is constitutively active; series mostly up to 38.3 µM.
In short: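 Assay principle: reduced luminescence from a cAMP-responsive reporter in HEK293 cells co-expressing a constitutively active GLP-1R. Conditions: 24 hr compound incubation, 37 deg C, 5% CO2.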
Also: nearly all actives have a fitted effect of over 55% in size.
Potency is read from the fitted curve at half-maximal effect; tags tell the direction and shape of the fitted curve.

Chain of UniProt P43220 (P43220 whole entry, looked up): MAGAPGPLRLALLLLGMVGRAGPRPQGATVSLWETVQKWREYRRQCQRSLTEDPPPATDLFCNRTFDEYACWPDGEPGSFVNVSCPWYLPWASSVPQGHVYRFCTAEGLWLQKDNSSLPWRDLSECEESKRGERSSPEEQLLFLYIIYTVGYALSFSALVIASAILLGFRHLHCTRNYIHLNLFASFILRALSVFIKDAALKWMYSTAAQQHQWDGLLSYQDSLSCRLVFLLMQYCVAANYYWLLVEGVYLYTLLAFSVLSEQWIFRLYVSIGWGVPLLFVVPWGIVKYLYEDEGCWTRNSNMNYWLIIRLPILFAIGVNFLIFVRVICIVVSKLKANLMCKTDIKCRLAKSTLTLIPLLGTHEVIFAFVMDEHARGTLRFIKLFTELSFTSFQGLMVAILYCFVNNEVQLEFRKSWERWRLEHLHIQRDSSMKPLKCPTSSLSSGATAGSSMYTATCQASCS

Compound | Potency
C[C@@]12C(=O)Nc3ccc(Cl)cc3C(=O)N1[C@H]1c3ccccc3OC[C@@H]1[C@@H]2c1ccccc1 | inconclusive [inhibitor, partial curve, poor fit]
C/C(=N/NC(=O)CN1CCN(S(=O)(=O)c2ccc(C)cc2)CC1)c1cccc(O)c1 | inconclusive [inhibitor, partial curve, poor fit]
CCOc1cc(N2CCOCC2)c(OCC)cc1NC(=O)c1ccc(OC)cc1 | inactive
CCCOc1ccc(-c2nc(N3CCN(C)CC3)c3ccccc3n2)cc1 | inconclusive [inhibitor, single point]
COc1ccc(CC(=O)N[C@@H]2c3ccccc3CC[C@H]2OCc2ccccc2)cc1 | inconclusive [inhibitor, single point]
Cc1ccc(S(=O)(=O)N2CCCCC2)cc1NC(=O)Cc1cccs1 | inconclusive [inhibitor, single point]
COc1ccc(NS(=O)(=O)c2ccc(N3CCCC3)c(N)c2)cc1 | inconclusive [inhibitor, partial curve, poor fit]
CCCN(CCC)C(=O)CC(c1ccccc1)c1cc(Br)ccc1O (centres undefined) | inconclusive [inhibitor, partial curve, poor fit]
O=C(CCCCCn1c(=O)[nH]c2ccccc2c1=O)NCCCN1CCN(c2ccccc2F)CC1 | inconclusive [inhibitor, full curve, poor fit]
O=C1CC(c2ccccc2)CC(O)=C1C=NCc1ccco1 (centres undefined) | inactive
CCc1ccc(N2CC(C)Cn3c2nc2c3c(=O)n(CC(=O)O)c(=O)n2C)cc1 (centres undefined) | inactive
C1CCN(C2CCN(c3nc4nonc4nc3N3CCSCC3)CC2)C1 | inactive
COC(=O)Cc1ccc(NC(=S)N2CCCC(C)C2)cc1 (centres undefined) | inactive
Cc1ccc(NS(=O)(=O)c2ccc3c(c2)NC(=O)CO3)cc1Cl | active: 10 µM
COc1ccc(NC(=O)COc2ccccc2Cc2ccccc2)cc1S(=O)(=O)N1CCOCC1 | inconclusive [inhibitor, single point]
CCC1CN(CC(=O)NCc2cccc(Br)c2)c2ccccc2S1 (centres undefined) | inconclusive [inhibitor, single point]
COc1ccc(-c2ccc(CCC(=O)O)n2-c2ccccc2C(F)(F)F)cc1 | inconclusive [inhibitor, partial curve, poor fit]
Fc1cccc(Cl)c1C1SCc2nc3ccccc3n21 (centres undefined) | inconclusive [inhibitor, partial curve]
Cc1ccc(S(=O)(=O)c2cn(CC(=O)Nc3ccc4c(c3)OCO4)c3ccc(C)cc3c2=O)cc1 | inactive
CCOC(=O)c1c(CC(C)C)csc1NC(=O)C(C)C | inconclusive [inhibitor, single point]
COc1ccc([N+](=O)[O-])c(S(=O)(=O)c2ccc(Cl)cc2)n1 | inconclusive [inhibitor, single point]
Cc1ccc2c(c1)NC(=O)C(CC(=O)NCCCN1CCN(c3cc(C)ccc3C)CC1)O2 (centres undefined) | inconclusive [inhibitor, partial curve, poor fit]

Compound | Potency
Cc1ccccc1OCc1nnc(SCc2cc(=O)c3cc(F)ccc3[nH]2)n1C | inactive
Cc1ccc(Nc2cc(C)nc3ccccc23)c(C)c1 | active: 10 µM
CCCSc1ncc(Cl)c(C(=O)Nc2ccc(S(=O)(=O)N3CCCCC3C)cc2)n1 (centres undefined) | inconclusive [inhibitor, partial curve, poor fit]
CCCC(O)(CCC)C(=O)NN(C(=O)CCl)c1ccccc1 | inconclusive [inhibitor, single point]
COc1cccc(NC(=S)N2CCC(Cc3ccccc3)CC2)c1 | inconclusive [inhibitor, partial curve, poor fit]
O=C(NC1=NCCS1)c1cc2ccccc2o1 | inconclusive [inhibitor, partial curve]
Nc1ccc2c(O)cc(S(=O)(=O)O)cc2c1 | inconclusive [inhibitor, single point]
COc1ccc(/C=N/NC(=O)CCn2nc(C)cc2C)cc1 | inconclusive [inhibitor, full curve, poor fit]
Cc1ccc(C(=O)Oc2ccc(Br)cc2C(=S)N2CCOCC2)cc1 | inconclusive [inhibitor, single point]
O=C(c1cc(COc2ccc(F)cc2F)on1)N1CC2C[C@@H]3CC1C[C@H](C2)C3 | inconclusive [inhibitor, full curve, poor fit]
O=[N+]([O-])c1ccc2nonc2c1Nc1cccc(F)c1 | inactive
CCCCNC(=O)COC(=O)c1c2c(nc3ccccc13)/C(=C\c1cccs1)CC2 | active: 6.31 µM
Cn1cccc1CNC(=S)Nc1ccccc1F | inactive
Cc1cccc(-c2nnc(SCCOc3ccc4c(C)cc(=O)oc4c3)o2)c1 | inactive
Cc1cccc(CNC(=O)c2ccc(Cn3c(SCc4cccc(F)c4)nc4cccnc43)cc2)c1 | inconclusive [inhibitor, single point]
N/C(Cn1nnc(-c2ccccc2)n1)=N\O | inactive
COCCn1c(SCc2ccccc2F)nc2c([nH]c3ccccc32)c1=O | inactive
O=C1C(c2ccncc2)=C(O)c2ccccc21 | inconclusive [inhibitor, partial curve]
O=C(c1cc(C2CC2)nn1-c1ccccc1)N1CCN(Cc2ccccc2)CC1 | inconclusive [inhibitor, single point]
Cc1ccc(NC(=O)Cc2c(Cl)cccc2Cl)cc1S(=O)(=O)N(C)C | inconclusive [inhibitor, single point]
COc1ccc(C/C(C)=N/NC(=S)Nc2ccccc2)cc1 | inconclusive [inhibitor, single point]
CCOc1ccc(-n2cc(-c3ccccc3)c3c(NCc4ccccc4)ncnc32)cc1 | inconclusive [inhibitor, full curve, poor fit]
